According to the supplement of paper PMC8728848:
Some of the results follow.

Assays:
Assay in all cases: glycan array binding signal (z-score within array); higher = stronger binding
Conditions in all cases: glycan notation: IUPAC condensed, linker removed
[1] = biological target: Gal(b1-4)GlcNAc(b1-2)[Gal(b1-4)GlcNAc(b1-4)]Man(a1-3)[GlcNAc(b1-4)][Gal(b1-4)GlcNAc(b1-2)Man(a1-6)]Man(b1-4)GlcNAc(b1-4)GlcNAc
Procedure, shortened: (§1)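 From the Consortium for Functional Glycomics database, 3228 arrays were curated, keeping only those whose protein sequence was available. Binding is given as a within-array Z-score averaged across arrays sharing a protein sequence and across linkers. Negative Z-scores can be read as non-binding.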

[2] = biological target: Gal(b1-4)GlcNAc(b1-2)[Gal(b1-4)GlcNAc(b1-4)]Man(a1-3)[GlcNAc(b1-4)][Gal(b1-4)GlcNAc(b1-2)[Gal(b1-4)GlcNAc(b1-6)]Man(a1-6)]Man(b1-4)GlcNAc(b1-4)GlcNAc
Procedure, shortened: as §1

[3] = biological target: Gal(b1-4)GlcNAc(b1-2)[Gal(b1-4)GlcNAc(b1-4)]Man(a1-3)[GlcNAc(b1-4)][Gal(b1-4)GlcNAc(b1-2)[Gal(b1-4)GlcNAc(b1-6)]Man(a1-6)]Man(b1-4)GlcNAc(b1-4)[Fuc(a1-6)]GlcNAc
Procedure, shortened: as §1

[4] = biological target: Gal(b1-4)GlcNAc(b1-2)[Gal(b1-4)GlcNAc(b1-6)]Man(a1-6)[Gal(b1-4)GlcNAc(b1-2)Man(a1-3)]Man(b1-4)GlcNAc(b1-4)GlcNAc
Procedure, shortened: as §1

[5] = biological target: Gal(b1-4)GlcNAc(b1-2)[Gal(b1-4)GlcNAc(b1-6)]Man(a1-6)[Gal(b1-4)GlcNAc(b1-2)Man(a1-3)]Man(b1-4)GlcNAc(b1-4)[Fuc(a1-6)]GlcNAc
Procedure, shortened: as §1

[6] = biological target: Gal(b1-4)GlcNAc(b1-2)[Gal(b1-4)GlcNAc(b1-6)]Man(a1-6)[GlcNAc(b1-4)][Gal(b1-4)GlcNAc(b1-2)Man(a1-3)]Man(b1-4)GlcNAc(b1-4)GlcNAc
Procedure, shortened: as §1

[7] = biological target: Gal(b1-4)GlcNAc(b1-3)Gal(b1-3)GlcNAc
Procedure, shortened: as §1

[8] = biological target: Gal(b1-4)GlcNAc(b1-3)Gal(b1-4)Glc
Procedure, shortened: as §1

[9] = biological target: Gal(b1-4)GlcNAc(b1-3)Gal(b1-4)GlcNAc
Procedure, shortened: as §1

[10] = biological target: Gal(b1-4)GlcNAc(b1-3)Gal(b1-4)GlcNAc(b1-3)Gal(b1-4)GlcNAc
Procedure, shortened: as §1

[11] = biological target: Gal(b1-4)GlcNAc(b1-3)Gal(b1-4)[Fuc(a1-3)GlcNAc(b1-6)]Gal(b1-4)Glc
Procedure, shortened: as §1

[12] = biological target: Gal(b1-4)GlcNAc(b1-3)Gal(b1-4)[Fuc(a1-3)]GlcNAc(b1-3)Gal(b1-4)[Fuc(a1-3)]GlcNAc
Procedure, shortened: as §1

[13] = biological target: Gal(b1-4)GlcNAc(b1-3)GalNAc
Procedure, shortened: as §1

[14] = biological target: Gal(b1-4)GlcNAc(b1-3)[Gal(b1-4)GlcNAc(b1-6)]Gal(b1-4)GlcNAc
Procedure, shortened: as §1

[15] = biological target: Gal(b1-4)GlcNAc(b1-3)[Gal(b1-4)GlcNAc(b1-6)]GalNAc
Procedure, shortened: as §1

[16] = biological target: Gal(b1-4)GlcNAc(b1-3)[GlcNAc(b1-6)]Gal(b1-4)GlcNAc
Procedure, shortened: as §1

[17] = biological target: Gal(b1-4)GlcNAc(b1-6)Gal(b1-4)GlcNAc
Procedure, shortened: as §1

[18] = biological target: Gal(b1-4)GlcNAc(b1-6)GalNAc
Procedure, shortened: as §1

[19] = biological target: Gal(b1-4)GlcNAc(b1-6)[Gal(b1-3)]GalNAc
Procedure, shortened: as §1

[20] = biological target: Gal(b1-4)GlcNAc6P
Procedure, shortened: as §1

[21] = biological target: Gal(b1-6)Gal
Procedure, shortened: as §1

[22] = biological target: Gal3S(b1-3)GalNAc
Procedure, shortened: as §1

[23] = biological target: Gal3S(b1-3)GlcNAc
Procedure, shortened: as §1

[24] = biological target: Gal3S(b1-3)[Fuc(a1-4)]GlcNAc
Procedure, shortened: as §1

[25] = biological target: Gal3S(b1-4)Glc
Procedure, shortened: as §1

[26] = biological target: Gal3S(b1-4)Glc6S
Procedure, shortened: as §1

[27] = biological target: Gal3S(b1-4)GlcNAc
Procedure, shortened: as §1

[28] = biological target: Gal3S(b1-4)GlcNAc6S
Procedure, shortened: as §1

[29] = biological target: Gal3S(b1-4)[Fuc(a1-3)]Glc
Procedure, shortened: as §1

[30] = biological target: Gal3S(b1-4)[Fuc(a1-3)]Glc6S
Procedure, shortened: as §1

B1: PitA (Streptococcus oralis), G3F8D8 (protein)
chain: MNIRFDFKKVQIIARRLVTLLAILFLCAPISLLNADSTTEPQTTLHKTITPISGQDDKYELSLDITSKLGTETQTDPLDVVLVADLSGSMQNQDVQSFDGRTISRIDALKNTLRGTNGRKGLIDTILSNSNNRLSMVGFGGKIDNKKVDQYWDGNKWRLFRPYWPYERMTKYYDGVSPWDDANTILGWSNNARAAKTAVYNMSIAGGNSIGTESGIGTGTNIGAGLTLANQLMGSARSNAKKVVILLSDGFANMVYDANGYTIYNYNNEDPNIETAPQWFWDRLNNNLNSLSYSLAPTLDGFYSIKFRYSNNVDSITSLQYYMRQHNASIPNEIFSANDEDQLRDSFKDITDKILPLGIHHVSIKDVLSKYVQLLPNGSSEFRVVKEKDGSSEILIENQVTFDTKTTSEGLVEVTAKFSPNYSLEDGARYVLKFTVTSSQEALDAIAGDKKLEAGDAEGSDVNKLYSNKGASVTYSYGIGNSQTKTKEYSDNPTFKPSDPLTVPVEVEWQGVTGARTVITADQPSNVELKLVQKNKNGGSDNQDYRKTNVNVSKNVSNETRNFEKVAKGYQYDLIAPDVPAFTKEIKNVGTESKPSFKVIYKQLPSLTIKKVLEAENNLNKEFRIKVKLTSPDSKPLNGTFGEITVVNGEAEIRVEKRKRWEGILSYLPRGTHYKVEEEAASTNGYHVTYENQEGDLNKDETSIVTNHKLPSLSVTKKVTGVFANLLKSFKITINIRDAQNSPLNGTYTATVNNKRTPLQFTNGRASIDLNKDQTIKIYGLPLDSHYTVEEESNSSRGYQVSYENQEGKLDGDKSATVTNNKNSVPETGVDFLSSTLMLGIILPLGGIFFTILLGYLVVHRRK
For B1, which “glycan array binding signal (z-score)” value [1] is on record?
Its value is -0.184.

What about the “glycan array binding signal (z-score)” value [2] of the same binder?
The value was 1.74.

What about the “glycan array binding signal (z-score)” value [3] of the same binder?
Its value is -0.382.

And the “glycan array binding signal (z-score)” value [4]?
The value was -0.017.

What about the “glycan array binding signal (z-score)” value [5] of the same binder?
The value was -0.311.

And the “glycan array binding signal (z-score)” value [6]?
The value was -0.412.

What about the “glycan array binding signal (z-score)” value [7] of the same binder?
Its value is 0.312.

What about the “glycan array binding signal (z-score)” value [8] of the same binder?
The value was 0.615.

And the “glycan array binding signal (z-score)” value [9]?
The value was -0.586.

And the “glycan array binding signal (z-score)” value [10]?
The value was -0.47.

What about the “glycan array binding signal (z-score)” value [11] of the same binder?
The value was -0.432.

And the “glycan array binding signal (z-score)” value [12]?
The value was -0.478.

What about the “glycan array binding signal (z-score)” value [13] of the same binder?
Its value is -0.575.

And the “glycan array binding signal (z-score)” value [14]?
Its value is -0.764.

And the “glycan array binding signal (z-score)” value [15]?
The value was 0.195.

What about the “glycan array binding signal (z-score)” value [16] of the same binder?
The value was -0.64.

And the “glycan array binding signal (z-score)” value [17]?
Its value is 0.378.

And the “glycan array binding signal (z-score)” value [18]?
The value was 0.228.

What about the “glycan array binding signal (z-score)” value [19] of the same binder?
The value was -0.546.

What about the “glycan array binding signal (z-score)” value [20] of the same binder?
Its value is -0.111.

What about the “glycan array binding signal (z-score)” value [21] of the same binder?
Its value is 0.067.

What about the “glycan array binding signal (z-score)” value [22] of the same binder?
Its value is -0.557.

And the “glycan array binding signal (z-score)” value [23]?
Its value is -0.291.

What about the “glycan array binding signal (z-score)” value [24] of the same binder?
Its value is -0.462.

What about the “glycan array binding signal (z-score)” value [25] of the same binder?
The value was 0.073.

What about the “glycan array binding signal (z-score)” value [26] of the same binder?
The value was -0.213.

What about the “glycan array binding signal (z-score)” value [27] of the same binder?
The value was -0.738.

What about the “glycan array binding signal (z-score)” value [28] of the same binder?
The value was 0.542.

What about the “glycan array binding signal (z-score)” value [29] of the same binder?
Its value is 0.218.

What about the “glycan array binding signal (z-score)” value [30] of the same binder?
The value was 1.91.
